Measured values reported in the antibiotic and cytotoxicity screens of Wong et al. (2023).
Some of the results follow.

How the values were obtained:
HSkMC = human skeletal muscle cells; assay: cytotoxicity call (relative viability < 0.9); conditions: 10 µM
HepG2 = assay: cytotoxicity call (relative viability < 0.9); conditions: 10 µM
S. aureus RN4220 = assay: growth inhibition call (relative growth <= 0.2); conditions: 50 µM

| Structure (SMILES) | cytotoxicity call (HSkMC) | cytotoxicity call (HepG2) | growth inhibition call (S. aureus RN4220) |
| --- | --- | --- | --- |
| C[C@H](CO)N1C[C@H](C)[C@H](CN(C)Cc2ccc(Cl)c(Cl)c2)Oc2c(NC(=O)Nc3ccc(F)cc3)cccc2C1=O | inactive | inactive | inactive |
| Cc1ccc(S(=O)(=O)Nc2ccc3c(c2)C(=O)N([C@@H](C)CO)C[C@@H](C)[C@H](CN(C)C(=O)Nc2ccc4c(c2)OCO4)OCCCC[C@@H](C)O3)cc1 | inactive | inactive | inactive |
| O=C(C[C@H]1CC[C@H]2[C@@H](COC[C@H](O)CN2C(=O)Nc2ccc(Cl)cc2)O1)NCCc1ccncc1 | inactive | inactive | inactive |
| O=C(C[C@H]1C[C@H]2c3cc(NC(=O)c4ccc5c(c4)OCO5)ccc3O[C@H]2[C@@H](CO)O1)NCc1cccnc1 | inactive | inactive | inactive |
| O=C(C[C@@H]1CC[C@@H]2[C@H](COC[C@H](O)CN2C(=O)c2ccccn2)O1)NC1CCC1 | inactive | inactive | inactive |
| C=CCC[C@@H](Cc1ccc(F)cc1)C(=O)OC[C@H](Cc1c[nH]c2ccccc12)NC(=O)[C@@H](CC=C)CC(=O)N[C@@H](CO)Cc1ccccc1 | inactive | active | inactive |
| COc1ccc(S(=O)(=O)N[C@H]2C=C[C@H](CC(=O)N3CCN(c4ccccc4)CC3)O[C@@H]2CO)cc1 | inactive | inactive | inactive |
| Cn1c(CN)nc2ccccc2c1=O | inactive | inactive | inactive |
| CCN(CC)CCNc1ccc(CO)c2sc3ccccc3c(=O)c12 | inactive | active | inactive |
| C[C@@H](O)[C@@H](O)[C@@H](O)C/C=N/NC(=O)c1ccccn1 | inactive | inactive | inactive |
| Cc1ccccc1S(=O)(=O)N1C[C@H](O)COC[C@H]2O[C@@H](CC(=O)N3CCN(C)CC3)CC[C@@H]21 | inactive | inactive | inactive |
| CC(=O)Nc1c(O)[nH]c(SCC(=O)N2CCOCC2)nc1=O | inactive | inactive | inactive |
| C[C@H](N)C(=O)N1CCc2ccccc2C1 | inactive | inactive | inactive |
| O=C(CCCCCCC(=O)Nc1ccc([C@H]2C[C@@H](CSc3nc(-c4ccccc4)c(-c4ccccc4)o3)O[C@H](c3ccccc3)O2)cc1)NO | inactive | inactive | inactive |
| C[C@@H]1CN([C@@H](C)CO)C(=O)c2cc(NS(C)(=O)=O)ccc2O[C@@H](C)CCCCO[C@@H]1CN(C)C(=O)Nc1ccc(C(F)(F)F)cc1 | inactive | inactive | inactive |
| C[C@H](CO)N1C[C@H](C)[C@H](CN(C)C(=O)c2cnccn2)Oc2cc(C3=CCCC3)ccc2S1(=O)=O | inactive | inactive | inactive |
| C[C@@H]1CCCCO[C@H](CN(C)Cc2ccc(C(F)(F)F)cc2)[C@H](C)CN([C@@H](C)CO)C(=O)c2cc(NC(=O)Nc3ccc(F)cc3)ccc2O1 | inactive | active | inactive |
| C[C@@H]1CN([C@H](C)CO)S(=O)(=O)c2ccc(-c3cncnc3)cc2O[C@@H]1CN(C)C(=O)c1cccc(F)c1 | inactive | inactive | inactive |
| Cc1noc(C)c1S(=O)(=O)N(C)C[C@@H]1OCCCC[C@@H](C)Oc2ccc(NS(=O)(=O)c3cn(C)cn3)cc2C(=O)N([C@H](C)CO)C[C@@H]1C | inactive | inactive | inactive |
| COc1ccc(CN(C)C[C@H]2Oc3c(NS(=O)(=O)c4cn(C)cn4)cccc3C(=O)N([C@@H](C)CO)C[C@H]2C)cc1 | inactive | inactive | inactive |
| CC(C)[Si](C#C[Si](C(C)C)(C(C)C)C(C)C)(O[C@H](C)c1cn([C@H](CO)Cc2ccccc2)nn1)C(C)C | inactive | inactive | inactive |
| C[C@@H]1CCCCO[C@H](CN(C)Cc2ccc3c(c2)OCO3)[C@@H](C)CN([C@@H](C)CO)C(=O)c2cc(NS(=O)(=O)c3ccccc3)ccc2O1 | inactive | inactive | inactive |
| O=C(O)COCC(=O)NCc1ccco1 | inactive | inactive | inactive |
| Cc1noc(C)c1NC(=O)Nc1cccc2c1O[C@@H](CN(C)C(=O)Nc1cccc3ccccc13)[C@@H](C)CN([C@@H](C)CO)C2=O | inactive | inactive | inactive |
| COc1ccc(S(=O)(=O)N(C)C[C@@H]2Oc3c(NC(=O)C4CC4)cccc3C(=O)N([C@H](C)CO)C[C@H]2C)cc1 | inactive | inactive | inactive |
| O=C(C[C@@H]1CC[C@@H](NC(=O)CN2CCOCC2)[C@H](CO)O1)NCc1cccc(F)c1 | inactive | inactive | inactive |
